Assay results reported in PubChem BioAssay AID463173 (ICCB-Longwood Screening Facility, Harvard Medical School, 2010).
Hit rate of the full screen: of about 52,000 compounds, about 1,700 (3.3%) were called active. Cut-off read from the data, not from the text of the source: active = survival mostly below about 52% (no sharp cut-off); inactive = mostly above about 56%. Some of the results follow.

The compounds below were run on Wild type (assay: growth inhibition of S. aureus wild type versus tarO mutant, primary screen, teichoic acid synthesis inhibitors, RN4220, OD600 (AID 463173)). Details: S. aureus RN4220 wild type/DeltatarO growth, OD600, 18 h, hits give low values, screened at 18.75 µg/mL (by protocol).
In the case of `Cc1cnc2c(c1SCC(=O)Nc1ccc(F)cc1F)c(=O)n(C)c(=O)n2C`, the survival is reported as inactive: 76%.
In the case of `COc1ccc(Cn2c(SCC(N)=O)nc3c(sc4ccccc43)c2=O)cc1`, the survival is reported as inactive: 75%.
With `Cc1cc(F)ccc1NC(=O)C1CCCN(S(=O)(=O)c2ccc3c(c2)CCCC(=O)N3)C1` (configuration not stated) the survival was inactive: 65%.
With `Cc1ccc2[nH]c3c(=O)n(CC(=O)N4CCN(c5cccc(C(F)(F)F)c5)CC4)ncc3c2c1` the survival was inactive: 77%.
With `CCOc1ccc(N2C(=O)N(Cc3c(F)cccc3Cl)c3ccccc3S2(=O)=O)cc1` the survival was inactive: 77%.
In the case of `Cc1ccc(O)c(CNc2cccc3cccnc23)c1`, the survival is reported as inactive: 107%.
`CN(C)c1ccc(CN(CC2CCCO2)C(=O)c2ccc(Br)cc2)cc1` (configuration not stated) was tested, and the survival was inactive: 88%.
With `Cc1ccc(-n2c(=O)c3ccc(C(=O)NCc4ccccc4Cl)cc3n(CC(=O)Nc3cccc(F)c3)c2=O)cc1` the survival was inactive: 60%.
`Cc1ccc2[nH]c(CSc3nnc(COc4ccccc4C)n3C)cc(=O)c2c1` was tested, and the survival was inactive: 80%.
With `COc1cccc(CNC(=O)CN2C(=O)CSc3c2c(C)nn3-c2ccccc2)c1` the survival was inactive: 74%.
In the case of `CCCN1C(=O)/C(=c2\sc3n(c2=O)C(c2ccccc2)C(C(=O)OC)=C(C)N=3)c2ccccc21` (configuration not stated), the survival is reported as inactive: 106%.
With `O=C(COCc1cc(-c2cccs2)on1)Nc1ccc(OC(F)(F)F)cc1` the survival was inactive: 124%.
`Cc1cc2c(cc1C)NC(CC(=O)Nc1ccccc1SC(F)(F)F)C(=O)N2` (configuration not stated) was tested, and the survival was inactive: 90%.
`CCCCOc1ccc(NC(=O)Cn2nnnc2-c2ccccc2F)cc1` was tested, and the survival was inactive: 91%.
`CC1CCCCN1C(=O)CSc1nc(C2CC2)nc2ccccc12` (configuration not stated) was tested, and the survival was inactive: 110%.
With `COc1ccc2ncc3c(-c4ccc(C)c(C)c4)nn(CC(=O)NC4CCCCC4)c3c2c1` the survival was inactive: 88%.
For `Cc1ccc(S(=O)(=O)c2nc(-c3ccco3)oc2SCC(C)C)cc1`, the survival was inactive: 39%.
`COc1cc(OC)c(NC(=O)Cn2cnc3sc(C)c(S(=O)(=O)N4CCN(C)CC4)c3c2=O)cc1Cl` was tested, and the survival was inactive: 142%.
With `CCOc1ccc(Br)cc1CNCCSc1nnnn1-c1ccccc1` the survival was inactive: 38%.
`CCc1ccccc1NC(=O)CN1C(=O)c2cccnc2Oc2ccc(Cl)cc21` was tested, and the survival was inactive: 126%.
In the case of `c1ccc2c3c([nH]c2c1)-c1nonc1CC3`, the survival is reported as inactive: 120%.
With `CCc1ccc(NC(=O)c2nn(-c3ccc(C)cc3)c(=O)n(C)c2=O)cc1` the survival was inactive: 73%.
`CC(C)(C)OC(=O)N1CCC(c2c(C(=O)Nc3ccc4c(c3)OCCO4)cnn2-c2ccccc2)CC1` was tested, and the survival was inactive: 80%.
In the case of `COC(=O)NCc1c(C)nn(-c2ccccc2)c1-n1cccc1`, the survival is reported as inactive: 88%.
For `CCOC(=O)c1oc2c(c1C)-c1nn(Cc3ccccc3Cl)cc1CC2`, the survival was inactive: 41%.
For `Cc1ccc(C)c(NC(=O)C(=O)NCCc2csc3nc(-c4ccccc4C)nn23)c1`, the survival was inactive: 129%.
With `c1ccc(CN2CCCC2)nc1` the survival was inactive: 113%.
`COc1ccc(CNC(=O)c2cc3c(s2)-c2c(C)cccc2OC3)cc1` was tested, and the survival was inactive: 83%.
In the case of `Cc1cccnc1Nc1nc(-c2cccnc2)cs1`, the survival is reported as inactive: 122%.
`CCCS(=O)(=O)N1CC(=O)N(c2ccccc2C)C(C)(C(=O)NC2CCCC2)C1` (configuration not stated) was tested, and the survival was inactive: 73%.
`CNC(=O)c1sc2ncccc2c1-n1cccc1` was tested, and the survival was inactive: 130%.
In the case of `CCOC(=O)N1CCC2(CC1)OC(=O)C(C)=C2C(=O)NCc1cccc(OC)c1`, the survival is reported as inactive: 131%.
`COc1ccc(NC(=O)CC2C(=O)N(c3ccc(C)cc3)C(=O)N2Cc2cccnc2)cc1` (configuration not stated) was tested, and the survival was inactive: 81%.
`Cn1c(=O)n(-c2cccc(Cl)c2)c(=O)c2sc3ccccc3c21` was tested, and the survival was inactive: 71%.
With `Cc1cc(NC(=O)Cn2nc(C)n3cccc3c2=O)ccc1Br` the survival was inactive: 86%.
With `O=C(CN1CCCCC1)N/N=C/c1ccc(Cl)cc1` the survival was inactive: 102%.
For `CCN1CCN(Cc2c(O)ccc3c(C)c(-c4ccccc4)c(=O)oc23)CC1`, the survival was inactive: 74%.
In the case of `CCCCN1C(=O)CN(C2CCCCC2)C(=O)C1c1ccc(OC(C)C)c(OC)c1` (configuration not stated), the survival is reported as inactive: 81%.
With `Cc1cccc(-n2ncc(C(=O)NCc3ccccn3)c2C2CCN(C(=O)OC(C)(C)C)CC2)c1` the survival was inactive: 75%.
In the case of `CC1CCCC(C)N1C(=O)c1cc2sccc2n1Cc1ccc(F)cc1` (configuration not stated), the survival is reported as inactive: 110%.
`COc1ccc(CNc2cc(-c3ccc(OC)cc3)nc3nncn23)cc1` was tested, and the survival was inactive: 75%.
In the case of `O=C(CSc1nc2c(c(=O)[nH]1)CCCC2)Nc1ccc(Br)cc1`, the survival is reported as inactive: 71%.
For `Cc1ccc(NC(=O)Cn2c(=O)n(CCC(=O)NCc3ccc4c(c3)OCO4)c(=O)c3sccc32)c(C)c1`, the survival was inactive: 96%.
With `Cc1ccc(C)c(N2CCN(c3nc4ccccc4n4c(C)nnc34)CC2)c1` the survival was inactive: 87%.
With `Cc1ccc(NC(=O)C(c2ccccc2)N2Cc3ccccc3C2=O)cc1Cl` (configuration not stated) the survival was inactive: 83%.
In the case of `Cc1ccccc1Nc1nn2c(=O)c3ccc(C(=O)NCCc4ccc(Cl)cc4)cc3nc2s1`, the survival is reported as inactive: 85%.
`Cc1ccc2nc(Cl)c3cc(C(=O)N4CCCCC4C)sc3c2c1` (configuration not stated) was tested, and the survival was inactive: 21%.
For `NC(=O)C1CCN(CC(=O)N2N=CCC2c2ccccc2)CC1` (configuration not stated), the survival was inactive: 88%.
In the case of `Cc1ccccc1CNC(=O)c1oc2c(c1C)-c1[nH]ncc1CC2`, the survival is reported as inactive: 89%.
In the case of `COc1ccc(Cl)cc1NC(=O)CN1C(=O)C(C)(C)c2cc(S(=O)(=O)N3CCCCC3)ccc21`, the survival is reported as inactive: 81%.
`CC(C)C1C(=O)Nc2ccc(S(=O)(=O)NCCc3ccc(Cl)cc3)cc21` (configuration not stated) was tested, and the survival was inactive: 73%.
`Cc1cccc(-n2ncc(C(=O)N3CCN(c4ccc(C)cc4C)CC3)c2C2CCN(C(=O)OC(C)(C)C)CC2)c1` was tested, and the survival was inactive: 93%.
`Cc1cc(N2CCN(C)CC2)nc2ccc(NC(=O)Nc3cccc(Cl)c3)cc12` was tested, and the survival was inactive: 67%.
In the case of `CCOc1ccc(Nc2c(S(=O)(=O)c3ccc(Cl)cc3)cnc3ccc(OCC)cc23)cc1`, the survival is reported as inactive: 79%.
`CCN1c2ccccc2-c2nc(SCC(=O)NCc3ccc(Cl)cc3)ncc2S1(=O)=O` was tested, and the survival was inactive: 64%.
In the case of `Cc1cn(C)c(CC(=O)NCc2ccccc2)c1C(=O)O`, the survival is reported as inactive: 80%.
With `Cc1ccsc1CN(C(=O)c1oc2ccc(Br)cc2c1C)C1CCS(=O)(=O)C1` (configuration not stated) the survival was inactive: 70%.
